Source: US7960377B2 (priority 2008, dated 2011)
Read-outs that look alike come from different tables or passages of the source. Some of these results come from one statement about several compounds together.

Target: T1, rat CB2 receptor (Rattus norvegicus, UniProt Q9QZN9)
T1 sequence (Q9QZN9 1-360): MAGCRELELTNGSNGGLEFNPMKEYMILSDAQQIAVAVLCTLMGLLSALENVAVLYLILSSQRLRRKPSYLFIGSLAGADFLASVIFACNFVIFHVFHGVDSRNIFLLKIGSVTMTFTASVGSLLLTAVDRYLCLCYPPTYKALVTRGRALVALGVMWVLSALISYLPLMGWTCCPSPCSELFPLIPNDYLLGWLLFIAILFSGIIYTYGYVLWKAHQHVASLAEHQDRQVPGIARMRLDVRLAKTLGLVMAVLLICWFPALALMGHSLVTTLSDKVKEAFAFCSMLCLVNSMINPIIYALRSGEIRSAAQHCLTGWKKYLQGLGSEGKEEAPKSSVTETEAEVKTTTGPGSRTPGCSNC
Format: cell-based
Conditions: read-out: EC50 values for rat CB2 receptor, change in intracellular cAMP, CHO-K1 rCB2 cells

[1] = bin >300 nM-3 μM, units given in the value

Compound: O=C(NCCO)c1cnc2c(c1)N(S(=O)(=O)c1ccc(Cl)cc1F)CCO2 [Example 115, 1-(4-chloro-2-fluorophenylsulfonyl)-N-(2-hydroxyethyl)-2,3-dihydro-1H-pyrido[2,3-b][1,4]oxazine-7-carboxamide]
- EC50 [1]: 0.3 to 3 µM

Compound: CNCCOC(=O)c1cnc2c(c1)N(S(=O)(=O)c1ccc(Cl)c(Cl)c1)CCO2 [Example 203, 2-(methylamino)ethyl 1-(3,4-dichlorophenylsulfonyl)-2,3-dihydro-1H-pyrido[2,3-b][1,4]oxazine-7-carboxylate]
- EC50 [1]: 0.3 to 3 µM

Compound: COCCN(C)C(=O)c1cnc2c(c1)N(S(=O)(=O)c1ccc(Cl)cc1)CCO2 [Example 34, 1-(4-chlorophenyl-sulfonyl)-N-(2-methoxy-ethyl)-N-methyl-2,3-dihydro-1H-pyrido[2,3-b][1,4]oxazine-7-carboxamide]
- EC50 [1]: 0.3 to 3 µM

Compound: O=C(c1cnc2c(c1)N(S(=O)(=O)c1ccc(C(F)(F)F)cc1)CCO2)N1CCCCC1CN1CCCC1 (racemic) [Example 75, +/− (2-(pyrrolidin-1-ylmethyl)piperidin-1-yl)(1-(4-(trifluoromethyl)-phenylsulfonyl)-2,3-dihydro-1H-pyrido[2,3-b][1,4]oxazin-7-yl)-methanone]
- EC50 [1]: 0.3 to 3 µM

Compound: CC1(C)CNC(c2cnc3c(c2)N(S(=O)(=O)c2ccc(C(F)(F)F)cc2)CCO3)=N1 [Example 224, 7-(4,4-dimethyl-4,5-dihydro-1H-imidazol-2-yl)-1-(4-(trifluoromethyl)phenylsulfonyl)-2,3-dihydro-1H-pyrido[2,3-b][1,4]oxazine]
- EC50 [1]: 0.3 to 3 µM

Compound: O=C(NC1CCCC1)c1cnc2c(c1)N(Cc1ccccc1)C(=O)CO2 [Example 219, 1-benzyl-N-cyclopentyl-2-oxo-2,3-dihydro-1H-pyrido[2,3-b] [1,4]oxazine-7-carboxamide]
- EC50 [1]: 0.3 to 3 µM

Compound: CC(C)(C)NC(=O)c1cnc2c(c1)N(S(=O)(=O)c1ccccc1OC(F)(F)F)CCO2 [Example 84, N-tert-butyl-1-(2-(trifluoromethoxy)phenyl-sulfonyl)-2,3-dihydro-1H-pyrido[2,3-b][1,4]oxazine-7-carboxamide]
- EC50 [1]: 0.3 to 3 µM

Compound: CCN(CCN(C)C)C(=O)c1cnc2c(c1)N(S(=O)(=O)c1ccc(C(F)(F)F)cc1)CCO2 [Example 38, N-(2-(dimethylamino)-ethyl)-N-ethyl-1-(4-(trifluoromethyl)phenylsulf-onyl)-2,3-dihydro-1H-pyrido[2,3-b][1,4]oxazine-7-carboxamide]
- EC50 (bin in μM): 3 to 30 µM

Compound: O=C(NC1(C(=O)O)CCC1)c1cnc2c(c1)N(S(=O)(=O)c1ccc(C(F)(F)F)cc1)CCO2 [Example 208, 1-(1-(4-(trifluoromethyl)phenylsulfonyl)-2,3-dihydro-1H-pyrido[2,3-b][1,4]oxazine-7-carboxamido)cyclobutanecarboxylic acid]
- EC50 [1]: 0.3 to 3 µM

Compound: O=C(c1cnc2c(c1)N(S(=O)(=O)c1ccc(C(F)(F)F)cc1)CCO2)N1CCCCC1CN1CCOCC1 (racemic) [Example 76, +/− (2-(morpholino-methyl)piperidin-1-yl)(1-(4-(trifluoromethyl)-phenylsulfonyl)-2,3-dihydro-1H-pyrido[2,3-b][1,4]oxazin-7-yl)methanone]
- EC50 [1]: 0.3 to 3 µM

Compound: COCCN(C)C(=O)c1cnc2c(c1)N(S(=O)(=O)c1ccc(C(F)(F)F)cc1)CCO2 [Example 35, N-(2-methoxyethyl)-N-methyl-1-(4-(trifluoro-methyl)phenylsulfonyl)-2,3-dihydro-1H-pyrido-[2,3-b][1,4]oxazine-7-carboxamide]
- EC50 [1]: 0.3 to 3 µM

Compound: O=C(c1cnc2c(c1)N(S(=O)(=O)c1ccc(Cl)c(Cl)c1)CCO2)N1CCC(O)CC1 [Example 127, (1-(3,4-dichlorophenyl-sulfonyl)-2,3-dihydro-1H-pyrido[2,3-b][1,4]oxazin-7-yl)(4-hydroxypiperidin-1-yl)methanone]
- EC50 [1]: 0.3 to 3 µM

Compound: O=C(N[C@H]1CC[C@H](O)CC1)c1cnc2c(c1)N(S(=O)(=O)c1ccc(Cl)c(Cl)c1)CCO2 [Example 134, 1-(3,4-dichlorophenyl-sulfonyl)-N-(trans-4-hydroxycyclohexyl)-2,3-dihydro-1H-pyrido[2,3-b][1,4]oxazine-7-carboxamide]
- EC50 [1]: 0.3 to 3 µM

Compound: CN(C)S(=O)(=O)N1CCOc2ncc(C(=O)NC(C)(C)C)cc21 [Example 145, N-tert-butyl-1-(N,N-dimethylsulfamoyl)-2,3-dihydro-1H-pyrido[2,3-b][1,4]oxazine-7-carboxamide]
- EC50 [1]: 0.3 to 3 µM

Compound: Cc1cccc(CS(=O)(=O)N2CCOc3ncc(C(=O)NC(C)(C)C)cc32)c1 [Example 81, N-tert-butyl-1-(3-methylbenzylsulfonyl)-2,3-dihydro-1H-pyrido[2,3-b][1,4]oxazine-7-carboxamide]
- EC50 [1]: 0.3 to 3 µM

Compound: Cn1cnc(S(=O)(=O)N2CCOc3ncc(C(=O)NC4CCCC4)cc32)c1 [Example 31, N-cyclopentyl-1-(1-methyl-1H-imidazol-4-ylsulfonyl)-2,3-dihydro-1H-pyrido[2,3-b][1,4] oxazine-7-carboxamide]
- EC50 [1]: 0.3 to 3 µM

Compound: CN(CCO)C(=O)c1cnc2c(c1)N(S(=O)(=O)c1ccc(Cl)c(Cl)c1)CCO2 [Example 120, 1-(3,4-dichlorophenyl-sulfonyl)-N-(2-hydroxy-ethyl)-N-methyl-2,3-dihydro-1H-pyrido[2,3-b][1,4]oxazine-7-carboxamide]
- EC50 [1]: 0.3 to 3 µM

Compound: O=C(c1cnc2c(c1)N(S(=O)(=O)c1ccc(Cl)c(Cl)c1)CCO2)N1CC(O)C1 [Example 125, (1-(3,4-dichlorophenyl-sulfonyl)-2,3-dihydro-1H-pyrido[2,3-b][1,4]oxazin-7-yl)(3-hydroxyazetidin-1-yl)methanone]
- EC50 [1]: 0.3 to 3 µM

Compound: CN1CCN(C(=O)c2cnc3c(c2)N(S(=O)(=O)c2ccc(Cl)c(Cl)c2)CCO3)CC1 [Example 123, (1-(3,4-dichlorophenyl-sulfonyl)-2,3-dihydro-1H-pyrido [2,3-b][1,4]oxazin-7-yl)(4-methylpiperazin-1-yl)methanone]
- EC50 [1]: 0.3 to 3 µM

Compound: O=C(NC1CCCC1)c1cnc2c(c1)N(S(=O)(=O)c1cccnc1)CCO2 [Example 17, N-cyclopentyl-1-(pyridin-3-ylsulfonyl)-2,3-dihydro-1H-pyrido[2,3-b][1,4]oxazine-7-carboxamide]
- EC50 [1]: 0.3 to 3 µM

Compound: COC(=O)CC1CCCCN1C(=O)c1cnc2c(c1)N(S(=O)(=O)c1ccc(C(F)(F)F)cc1)CCO2 (racemic) [Example 73, +/− methyl 2-(1-(1-(4-(trifluoromethyl)phenylsulf-onyl)-2,3-dihydro-1H-pyrido[2,3-b][1,4]oxazine-7-carbonyl)piperidin-2-yl)acetate]
- EC50 [1]: 0.3 to 3 µM

Compound: Cn1cnc(S(=O)(=O)N2CCOc3ncc(C(=O)NC(C)(C)C)cc32)c1 [Example 30, N-tert-butyl-1-(1-methyl-1H-imidazol-4-ylsulfonyl)-2,3-dihydro-1H-pyrido-[2,3-b][1,4]oxazine-7-carboxamide]
- EC50 [1]: 0.3 to 3 µM

Compound: CC(C)(C)NC(=O)c1cnc2c(c1)N(S(=O)(=O)Cc1ccc(C(F)(F)F)cc1)CCO2 [Example 63, N-tert-butyl-1-(4-(trifluoromethyl)benzylsulf-onyl)-2,3-dihydro-1H-pyrido[2,3-b][1,4]oxazine-7-carboxamide]
- EC50 [1]: 0.3 to 3 µM

Compound: O=C(c1cnc2c(c1)N(S(=O)(=O)c1ccc(C(F)(F)F)cc1)CCO2)N1CCCCC1 [Example 49, piperidin-1-yl(1-(4-(trifluoromethyl)phenylsulf-onyl)-2,3-dihydro-1H-pyrido[2,3-b][1,4]oxazin-7-yl)methanone]
- EC50 [1]: 0.3 to 3 µM
